Laboratory results published in patent US20260209331A1 (published 2026).

T1: P19 subunit of human IL-23 (IL23p19) (UniProt Q9NPF7 20-189)
T1 chain: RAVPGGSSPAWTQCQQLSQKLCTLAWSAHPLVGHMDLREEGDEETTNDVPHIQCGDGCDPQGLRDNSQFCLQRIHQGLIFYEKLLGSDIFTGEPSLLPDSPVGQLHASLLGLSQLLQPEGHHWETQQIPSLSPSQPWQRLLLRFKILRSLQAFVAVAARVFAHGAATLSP

B1: BsAb #D1 (antibody)
chain 1: not shown
chain 2: QSVLTQPPSVSGAPGQRVTISCTGSSSNIGSGYDVHWYQQLPGTAPKLLIYGNSKRPSGVPDRFSGSKSGTSASLAITGLQSEDEADYYCASWTDGLSLVVFGGGTKLTVLGQPKAAPSVTLFPPSSEELQANKATLVCLISDFYPGAVTVAWKADSSPVKAGVETTTPSKQSNNKYAASSYLSLTPEQWKSHRSYSCQVTHEGSTVEKTVAPTECS
B2: BsAb #B5 (antibody)
chain 1: not shown
chain 2: B1 chain 2
B3: BsAb #D2 (antibody)
chain 1: not shown
chain 2: B1 chain 2
B4: BsAb #A5 (antibody)
chain 1: not shown
chain 2: B1 chain 2
chain 3: not shown
chain 4: EVQLVQSGAEVKKPGESLKISCKGSGYSFSNYWIGWVRQMPGKGLEWMGIIDPSNSYTRYSPSFQGQVTISADKSISTAYLQWSSLKASDTAMYYCARWYYKPFDVWGQGTLVTVSSASTKGPSVFPLAPSSKSTSGGTAALGCLVKDYFPEPVTVSWNSGALTSGVHTFPAVLQSSGLYSLSSVVTVPSSSLGTQTYICNVNHKPSNTKVDKKV[letters of human IgG1 Fc with changes left out]

Biological target: T1, P19 subunit of human IL-23 (IL23p19)
Assay: SPR

Row | Kd [nM] | Binder
1 | 0.14 | B1
2 | 0.06 | B2
3 | 0.04 | B3
4 | 0.04 | B4

These binders were tested against T2, human TNF alpha (TNFα) (UniProt P01375 part only) (assay: SPR).

Row | Kd [nM] | Binder
5 | 0.28 | B1
6 | 0.71 | B2
7 | 0.29 | B3
8 | 0.39 | B4

What follows are binders tested against T2, human TNF alpha (TNFα) (assay: SPR; pre-bound with IL23p19).
T2 sequence (P01375 77-233): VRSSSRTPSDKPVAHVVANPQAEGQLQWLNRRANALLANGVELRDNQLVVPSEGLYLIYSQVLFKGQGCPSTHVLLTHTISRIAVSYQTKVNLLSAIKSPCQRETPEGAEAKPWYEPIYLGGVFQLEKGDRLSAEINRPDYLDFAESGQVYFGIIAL

Row | Kd [nM] | Binder
9 | 0.14 | B1
10 | 1.07 | B2
11 | 0.41 | B3
